Assay [1] deals with PELO (full length, yeast two-hybrid bait, pGBK7-PELO) (human) (UniProt Q9BRX2). Description: two-hybrid; pGBK7-PELO bait against a human prostate cDNA library in pACT2, yeast AH109; selection without histidine and adenine with 5 mM 3-amino-triazole, then beta-galactosidase.
Assay [2] deals with PELO-GFPC (full-length human Pelo, 1-385 aa, fused to the C-terminal half of EGFP) (human) (UniProt Q9BRX2). Description: split reporter; BiFC with EGFP halves (1-157, 158-239) in transiently co-transfected HeLa cells, 24 h at 37°C, 2 h at 30°C, fixed.
Assay [3] concerns the target GST-PELO fusion protein GST-1 (full-length human Pelo, 2-385 aa) (human) (UniProt Q9BRX2). As to the kind of experiment: pull-down; GST-PELO fusion proteins or GST alone (100 ug) on glutathione (GST-bind) resin, incubated with lysates of HeLa cells transfected with Myc-tagged constructs, 2 h at 4°C; blot with anti-Myc; only the target purified.
The target in assay [4] is GST-PELO fusion protein GST-2 (136-385 aa) (human) (UniProt Q9BRX2). The assay is described as above.
Assay [5] concerns the target GST-PELO fusion protein GST-4 (2-268 aa) (human) (UniProt Q9BRX2). Described as above.
Assay [6] deals with GST-PELO fusion protein GST-3 (2-371 aa) (human) (UniProt Q9BRX2). The description is as above.
For assay [7], the target named is HA-tagged PELO (PELO-HA) (human) (UniProt Q9BRX2). As to the kind of experiment: co-IP; lysates of HeLa cells co-transfected with PELO-HA and a Myc-tagged construct; precipitation with anti-Myc (blot anti-HA) or with anti-HA or anti-PELO (blot anti-Myc); control IgG.

Protein sequences, listed by entry. Tags and fused reporters are not part of them. Lines headed by an entry give the natural chain unless they say otherwise; changes in a name come on top. Chains listed by the source or under a name are the forms on record and can include a tag or linker. Residues count along the entry.
UniProt Q9BRX2: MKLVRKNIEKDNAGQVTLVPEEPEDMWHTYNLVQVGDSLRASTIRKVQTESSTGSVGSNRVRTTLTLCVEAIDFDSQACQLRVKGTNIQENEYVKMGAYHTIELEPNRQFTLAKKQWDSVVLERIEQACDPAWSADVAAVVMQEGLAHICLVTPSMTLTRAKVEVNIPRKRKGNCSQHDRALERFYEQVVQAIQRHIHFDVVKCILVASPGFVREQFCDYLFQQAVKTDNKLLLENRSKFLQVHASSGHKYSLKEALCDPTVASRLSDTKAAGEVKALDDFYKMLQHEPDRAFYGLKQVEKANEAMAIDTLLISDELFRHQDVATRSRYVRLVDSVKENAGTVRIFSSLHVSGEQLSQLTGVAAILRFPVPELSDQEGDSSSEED
GST-PELO fusion protein GST-1 (full-length human Pelo, 2-385 aa): residues 2-385 of Q9BRX2
GST-PELO fusion protein GST-3 (2-371 aa): residues 2-371 of Q9BRX2
GST-PELO fusion protein GST-4 (2-268 aa): residues 2-268 of Q9BRX2
GST-PELO fusion protein GST-2 (136-385 aa): residues 136-385 of Q9BRX2
UniProt O75821: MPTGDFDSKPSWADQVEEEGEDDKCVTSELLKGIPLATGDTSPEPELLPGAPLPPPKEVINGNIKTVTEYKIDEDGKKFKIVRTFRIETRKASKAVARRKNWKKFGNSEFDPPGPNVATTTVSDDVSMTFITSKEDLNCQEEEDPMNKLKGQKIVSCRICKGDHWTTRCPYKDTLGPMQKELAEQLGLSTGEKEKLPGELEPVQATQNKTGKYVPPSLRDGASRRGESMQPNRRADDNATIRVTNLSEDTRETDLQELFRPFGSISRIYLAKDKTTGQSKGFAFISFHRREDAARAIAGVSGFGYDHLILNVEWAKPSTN
Myc-HAX1 (12 kDa, cDNA fragment from the prey vector) (O00165, residues 176-279): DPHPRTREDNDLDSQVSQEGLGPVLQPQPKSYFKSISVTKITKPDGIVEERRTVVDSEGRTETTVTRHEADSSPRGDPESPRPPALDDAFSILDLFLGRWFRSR
HAX1-GFPN (HAX1 178-279 aa fused to the N-terminal half of EGFP) (O00165, residues 178-279): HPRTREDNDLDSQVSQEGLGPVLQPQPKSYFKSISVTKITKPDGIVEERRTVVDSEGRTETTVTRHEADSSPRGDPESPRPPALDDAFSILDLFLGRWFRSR

Results are given in words; binding and its absence hold for the method and conditions named. For some of these results: In cells and extracts the contact can be indirect. Some results given as binding are weak or reduced against the parent protein; the word gives no strength. For some of these results: Sequences can lack the tags named with a protein.

“EIF3G (amino acid residues 1-320), two-hybrid prey clone (from UniProt O75821 1-320) (domain or fragment)”: the binding result in assay [1] was “binds”.
On to “EIF3G-GFPN (EIF3G 1-320 aa fused to the N-terminal half of EGFP) (from UniProt O75821 1-320) (domain or fragment)”, for which the binding entry in assay [2] was “binds”.
Take “HAX1 (amino acid residues 176-279), two-hybrid prey clone (from UniProt O00165 176-279) (domain or fragment)”: the binding entry in assay [1] was “binds”.
Regarding “HAX1-GFPN (HAX1 178-279 aa fused to the N-terminal half of EGFP) (from UniProt O00165 178-279) (domain or fragment)”, the binding entry in assay [2] is on record as “binds”.
As to “Myc-EIF3G (38 kDa, cDNA fragment from the prey vector) (from UniProt O75821 1-320) (domain or fragment)”, the binding result in assay [3] was “binds”; in assay [4], “binds”; in assay [5], “no binding”; in assay [6] it was “binds”; in assay [7] it was “binds”.
As to “Myc-HAX1 (12 kDa, cDNA fragment from the prey vector) (from UniProt O00165 176-279) (domain or fragment)”, the binding entry in assay [3] is “binds”; in assay [4] it was “binds”; in assay [5], “no binding”; in assay [6] it was “no binding”; in assay [7], “binds”.

B1: MOS-GFPN (sequence of the MOS gene fused to the N-terminal half of EGFP) (protein, UniProt P00540 1-346)
chain: MPSPLALRPYLRSEFSPSVDARPCSSPSELPAKLLLGATLPRAPRLPRRLAWCSIDWEQVCLLQRLGAGGFGSVYKATYRGVPVAIKQVNKCTKNRLASRRSFWAELNVARLRHDNIVRVVAASTRTPAGSNSLGTIIMEFGGNVTLHQVIYGAAGHPEGDAGEPHCRTGGQLSLGKCLKYSLDVVNGLLFLHSQSIVHLDLKPANILISEQDVCKISDFGCSEKLEDLLCFQTPSYPLGGTYTHRAPELLKGEGVTPKADIYSFAITLWQMTTKQAPYSGERQHILYAVVAYDLRPSLSAAVFEDSLPGQRLGDVIQRCWRPSAAQRPSARLLLVDLTSLKAELG
Turning to B1, the binding result in assay [2] is listed as “no binding”.

B2: Myc-SRPX (24 kDa, cDNA fragment from the prey vector) (domain or fragment, UniProt P78539 265-464)
chain: LNAPENGYMKCSSDGDNYGATCEFSCIGGYELQGSPARVCQSNLAWSGTEPTCAAMNVNVGVRTAAALLDQFYEKRRLLIVSTPTARNLLYRLQLGMLQQAQCGLDLRHITVVELVGVFPTLIGRIGAKIMPPALALQLRLLLRIPLYSFSMVLVDKHGMDKERYVSLVMPVALFNLIDTFPLRKEEMVLQAEMSQTCNT
As for B2, the binding result in assay [3] is “binds”; in assay [4], “binds”; in assay [5], “no binding”; in assay [6] it was “binds”; in assay [7], “binds”.

B3: SRPX-GFPN (SRPX 265-464 aa fused to the N-terminal half of EGFP) (domain or fragment, UniProt P78539 265-464)
chain: B2 chain
Turning to B3, the binding result in assay [2] is reported as “binds”.

B4: SRPX (amino acid residues 265-464), two-hybrid prey clone (domain or fragment, UniProt P78539 265-464)
chain: B2 chain
B4: the binding result in assay [1] is “binds”.

For the origin of these results see PMC2867792.
